Source: the supplement of paper PMC11417369
The list shows a part of the results.

tested on: PfHDP1 homeodomain (GST-tagged); test: gcPBM binding intensity (ln(normalized median fluorescence intensity)); higher = stronger DNA binding
How it was run: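 GST-fused DNA-binding domains of P. falciparum, expressed in E. coli, were applied at about 25 μg on average for 1 h to an Agilent 4 × 180k array of primer-extended double-stranded 36-bp intergenic genomic probes and negative controls. Binding intensity is the highest Masliner-normalised natural-log median intensity across replicate spots of either probe orientation, measured with Alexa488 anti-GST antibody and a 488 nm scan.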

How did the “gcPBM binding intensity (ln)” value turn out when “AAAAAAAATATATTACAAAACTTAGGATCCTAATAT [CACACA_negctrl_site470]” was run?
The value was 6.33.

With “CACATAAAATAAGGTGCATGCAAACGAGAAAATAAA [TGCATGCA_site75]” as the sequence, how does the “gcPBM binding intensity (ln)” value read?
Its value is 8.67.

How did the “gcPBM binding intensity (ln)” value turn out when “ATATATATATAATAATGTACTTATAATAGATGTGTA [XGTACX_site4677]” was run?
Its value is 8.48.

With “TGCCCTTTGGTTATAACACACATGCACCCGTAAATA [CACACA_site3842]” as the sequence, how does the “gcPBM binding intensity (ln)” value read?
The value was 7.63.

With “ATTATAATATTTAATTGTACTTGTATTTATTCCAAA [XGTACX_site6417]” as the sequence, how does the “gcPBM binding intensity (ln)” value read?
The value was 6.31.

For ATATTTTATATAATAGTGCAAATAATATTAAATAAT, which “gcPBM binding intensity (ln)” value is on record?
Its value is 9.78.

Which “gcPBM binding intensity (ln)” value does the source give for “TAATAAAAAGTTGAGGTGCATATAGAGTTCTTCTTT [GTGCAC_site9508]” here?
The value was 9.32.

Which “gcPBM binding intensity (ln)” value does the source give for “GAACGATATATTATATGTACATATATATATATATAT [XGTACX_site394]” here?
Its value is 9.34.

“AAAAATATAACCGTTACACACAAAATAATATGAGAA [CACACA_site3773]” was tested. Which “gcPBM binding intensity (ln)” value did it give?
Its value is 6.7.

For “ATATATATATATATTTGTACTTACATTTTTATTTAT [XGTACX_site4551]”, which “gcPBM binding intensity (ln)” value is on record?
Its value is 9.

For “TATTTCATCTTTTAAGAAGGTACCCATATGTCATAT [GTGCAC_negctrl_site403]”, which “gcPBM binding intensity (ln)” value is on record?
Its value is 6.41.

“ATAATAAGGTTAAGCACACATATTACATATATAACT [CACACA_site3356]” was tested. Which “gcPBM binding intensity (ln)” value did it give?
Its value is 6.42.

“CGTAAACGATATAAATGTACGAATATCTATATATTA [XGTACX_site8116]” was tested. Which “gcPBM binding intensity (ln)” value did it give?
The value was 6.31.

With “TATATATTGCCCTTCACACACACACCGATATATATA [CACACA_site5390]” as the sequence, how does the “gcPBM binding intensity (ln)” value read?
Its value is 7.47.

With “TCGATTAAAACACAAAAATATAAATACATTGATAAA [TGCATGCA_negctrl_site523]” as the sequence, how does the “gcPBM binding intensity (ln)” value read?
Its value is 5.93.

“TTAAAAGTTATGGATACACACATATAAATATAGATT [CACACA_site7175]” was tested. Which “gcPBM binding intensity (ln)” value did it give?
The value was 6.32.

For “TTAATAAATATGTTTACACACGAAAATACATTTTTT [CACACA_site8245]”, which “gcPBM binding intensity (ln)” value is on record?
The value was 6.31.

With “ATTTTAATTTTTTAAGTATTATATGAATATTTATTA [TGCATGCA_negctrl_site142]” as the sequence, how does the “gcPBM binding intensity (ln)” value read?
Its value is 5.81.

How did the “gcPBM binding intensity (ln)” value turn out when “CACACGCACGAACACACACACACACGCGCACATATA [CACACA_site6304]” was run?
Its value is 8.54.

“ACATATATATATATATATATATATATATATTCTTAA [CACACA_negctrl_site930]” was tested. Which “gcPBM binding intensity (ln)” value did it give?
Its value is 7.41.

“TAATTTTCATAATTTTGTACTTAACGTTTTACCTTG [XGTACX_site8048]” was tested. Which “gcPBM binding intensity (ln)” value did it give?
The value was 6.32.

With GTCTAAAAATAAAAAGTGCATTTGTTTAATATTTTG as the sequence, how does the “gcPBM binding intensity (ln)” value read?
The value was 9.16.

How did the “gcPBM binding intensity (ln)” value turn out when “ATTAAAACAAATATGTGTACATAAAAATATATATAT [XGTACX_site8394]” was run?
The value was 7.82.

Which “gcPBM binding intensity (ln)” value does the source give for “TATTATTATTATTATTTTAAAAGAAATAAAAATATG [XGTACX_negctrl_site119]” here?
Its value is 6.41.

For “TGATTGTATTAAAATGCACACATATCAAGAGGAATT [CACACA_site7985]”, which “gcPBM binding intensity (ln)” value is on record?
Its value is 9.97.

For “TTAATTTTTTTTTTTTGTACTCATATGTAATTCATC [XGTACX_site3071]”, which “gcPBM binding intensity (ln)” value is on record?
Its value is 6.41.

With “TTTTATTATTCTTCTCTCTTATATATATATATATAT [CACACA_negctrl_site646]” as the sequence, how does the “gcPBM binding intensity (ln)” value read?
The value was 9.04.

For “TTTCAAAGGAAATGGTGTACACAATTTTTCCTTTTT [XGTACX_site2340]”, which “gcPBM binding intensity (ln)” value is on record?
Its value is 6.05.

Which “gcPBM binding intensity (ln)” value does the source give for “ACTGTGGTATAAAGTTGTACATGTTTTTATATATTT [XGTACX_site5257]” here?
Its value is 6.41.

Which “gcPBM binding intensity (ln)” value does the source give for “TACTTTTATATGAATACACACAGGAATATATATATG [CACACA_site3568]” here?
The value was 6.63.

How did the “gcPBM binding intensity (ln)” value turn out when “ATAACATAGGCAATCACACATATCATTAAGGTGTCA [CACACA_site5233]” was run?
Its value is 6.3.

For “TTACTTTAACCTTCTCGTACTTATTTACTTTATTCT [XGTACX_site7801]”, which “gcPBM binding intensity (ln)” value is on record?
Its value is 7.08.

For “AAAAGTTTAAGTTTTCGAAAATTTACCAAAAAAAAA [CACACA_negctrl_site1644]”, which “gcPBM binding intensity (ln)” value is on record?
The value was 6.3.

For “GTGCATAAATCATACACACACACATATATAAATATA [CACACA_site7188]”, which “gcPBM binding intensity (ln)” value is on record?
The value was 7.31.

Which “gcPBM binding intensity (ln)” value does the source give for “AAAGTTTTTATAAAAAAAAAAATAAATACCATATAT [XGTACX_negctrl_site113]” here?
The value was 6.5.

Which “gcPBM binding intensity (ln)” value does the source give for “GTGTTTTTATGTGAATGTACATATTTACTATCACAC [XGTACX_site2388]” here?
The value was 6.84.

With “ATATATATATATATATCATTTATTTAAAAATTTTTT [TGCATGCA_negctrl_site228]” as the sequence, how does the “gcPBM binding intensity (ln)” value read?
The value was 9.41.

CTCATTTTTGTACAGGTGCACTTATCGTTACACTAT was tested. Which “gcPBM binding intensity (ln)” value did it give?
Its value is 9.97.

“AACACATAAAAAAGGTGTACCATAAAATATACATAC [XGTACX_site4478]” was tested. Which “gcPBM binding intensity (ln)” value did it give?
Its value is 6.61.

“CTGTGTTTTGGTTGTACACACGCTACATTATATATT [CACACA_site5487]” was tested. Which “gcPBM binding intensity (ln)” value did it give?
Its value is 7.56.

How did the “gcPBM binding intensity (ln)” value turn out when “TTTTAATTTTGTTGTTGTACAAATAACATGTGAGGG [XGTACX_site4401]” was run?
Its value is 7.54.

With “ATATACATTAAATGAACACACATAAATAAATTACAT [CACACA_site2852]” as the sequence, how does the “gcPBM binding intensity (ln)” value read?
The value was 6.42.

With “TATTTTATCATTTTTTTTATGTCTTTATTTCACTTG [CACACA_negctrl_site1398]” as the sequence, how does the “gcPBM binding intensity (ln)” value read?
The value was 6.51.

With “ATATACACATTAATAACACACAATATGATAACAAAT [CACACA_site7670]” as the sequence, how does the “gcPBM binding intensity (ln)” value read?
Its value is 6.73.

For “TAGAATTAAGTTATTGCACACAGGAAAAGTTTCATA [CACACA_site1634]”, which “gcPBM binding intensity (ln)” value is on record?
The value was 9.22.

Which “gcPBM binding intensity (ln)” value does the source give for “AATCCTTACGAACACACACACACGAATAAATAAAAA [CACACA_site6363]” here?
Its value is 6.97.

For “TCTTCGAAACTATCACTCTCACAATTCATTTATTTT [TGCATGCA_negctrl_site156]”, which “gcPBM binding intensity (ln)” value is on record?
Its value is 6.46.

“ATAAATAAGAAAAATTGTACAATATTTTTTAGGATA [XGTACX_site3163]” was tested. Which “gcPBM binding intensity (ln)” value did it give?
Its value is 6.47.

How did the “gcPBM binding intensity (ln)” value turn out when “TTTATGTAATATACATGTACAGAATATAAAATATAT [XGTACX_site6906]” was run?
The value was 6.49.

With “TTAACTTCTTTAAAATGTACATATATTAAATAATAA [XGTACX_site3391]” as the sequence, how does the “gcPBM binding intensity (ln)” value read?
Its value is 6.29.

With “AAAAAATATAGATGCACACACAAAAAAACAAATTAA [CACACA_site6718]” as the sequence, how does the “gcPBM binding intensity (ln)” value read?
The value was 8.71.

Which “gcPBM binding intensity (ln)” value does the source give for “GTATTATTATTTTATGCATGTACATTGAATTATATT [TGCATGCA_site34]” here?
Its value is 6.88.

“ATATATATATATCAGAGTACATTCTTTAAAATATAT [XGTACX_site5915]” was tested. Which “gcPBM binding intensity (ln)” value did it give?
Its value is 8.7.

With “AGATTTTGAAATTATAAAAAAATTTCACTTCATTTA [CACACA_negctrl_site888]” as the sequence, how does the “gcPBM binding intensity (ln)” value read?
The value was 5.65.

How did the “gcPBM binding intensity (ln)” value turn out when “TATTCTTACATCACCTCACACATTTAATATTCCTTA [CACACA_site4693]” was run?
The value was 6.75.

“ATATGAGTATAAAAATGTACGGAGCAACTAAATATA [XGTACX_site620]” was tested. Which “gcPBM binding intensity (ln)” value did it give?
Its value is 7.36.
